# Laboratory results reported in the supplement of paper PMC3334620.
# Over roughly 33,000 sequences, “E-score (-0.5 to 0.5)” has its median near -0.036; the highest 2% begin near 0.37. Some of the results follow.
# Biological target: T1, Yer064c (UniProt P40041)
# T1 sequence: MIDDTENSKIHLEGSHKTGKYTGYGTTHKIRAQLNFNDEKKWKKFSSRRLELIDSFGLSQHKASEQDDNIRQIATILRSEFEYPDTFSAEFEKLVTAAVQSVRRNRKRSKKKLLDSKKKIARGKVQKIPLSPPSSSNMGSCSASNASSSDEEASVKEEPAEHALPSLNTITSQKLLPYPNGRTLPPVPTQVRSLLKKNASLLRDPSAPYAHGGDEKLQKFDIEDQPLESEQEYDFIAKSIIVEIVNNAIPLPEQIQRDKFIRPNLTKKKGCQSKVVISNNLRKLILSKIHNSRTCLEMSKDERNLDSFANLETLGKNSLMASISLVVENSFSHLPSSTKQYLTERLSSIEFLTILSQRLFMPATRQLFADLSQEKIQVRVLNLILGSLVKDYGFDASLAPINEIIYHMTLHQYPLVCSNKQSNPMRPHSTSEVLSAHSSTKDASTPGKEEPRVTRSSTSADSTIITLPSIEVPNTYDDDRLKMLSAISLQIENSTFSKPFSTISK
# Assay: PBM E-score (8-mer binding enrichment) (E-score (-0.5 to 0.5)); higher = stronger / more preferred TF binding; most listed sequences are background and not binding sites
# Details: protein concentration: 200 nM; construct: GST-full length
# Experimental: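 Universal 'all 10-mer' protein binding microarrays (Agilent AMADID 015681) probed with GST-tagged S. cerevisiae TFs (full-length or DBD) made by in vitro transcription/translation (PURExpress), about 100-200 nM. Bound TF was detected with fluorescent anti-GST. Each ungapped 8-mer (which stands for itself and its reverse complement) is scored by the PBM enrichment score (E-score), a modified Wilcoxon-Mann-Whitney statistic from -0.5 to +0.5, computed with the Universal PBM Analysis Suite. Scale: above 0.35 generally sequence-specific binding.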
row,Sequence,PBM E-score
1,GTTTAATA,0.126
2,ACCTCTAT,-0.212
3,CCGTACCC,-0.188
4,CGCCGCCA,-0.145
5,AAAACCTA,-0.155
6,AAGTAAAA,0.0955
7,AATCCAAG,0.0868
8,TACCTATA,-0.103
9,TCCGGACA,-0.199
10,GCTCGTAA,-0.103
11,ACTCGGCA,0.0706
12,GCCACTAA,0.0205
13,GCACACAA,-0.0167
14,AAGTGTCA,-0.0462
15,AGGGAGAT,-0.11
16,AAGTGAAC,-0.0697
17,CAAATGTG,0.0204
18,GTGCTCCA,-0.192
19,ACAAAAGC,0.0026
20,ATGATACC,-0.135
21,AACGCTGC,-0.21
22,GTAGGTGA,0.0923
23,CGTAAGCC,-0.198
24,TCAGATGA,0.298
25,AGTAATAG,-0.00571

row,Sequence,PBM E-score
1,AGGGGCCA,-0.256
2,CTCGACTA,0.299
3,CGATGGCC,-0.148
4,CAGGGCAC,-0.229
5,GCAGTACC,-0.0237
6,TACACGGA,0.0134
7,GCCACAGC,-0.0981
8,ATCTGTAG,-0.0362
9,AAGCGACG,-0.25
10,AACTCAAA,0.189
11,TATCTAAA,0.0652
12,AAAAAGCC,0.0279
13,AGATTGTA,0.0108
14,ATGGGGAG,-0.0664
15,GGTTTCGA,-0.0361
16,CCGGTAAG,-0.0744
17,GCGCTCTA,-0.11
18,TAACGCGA,-0.115
19,GATCGCGA,0.0739
20,TGACGAAA,0.0822
21,TACGGAGA,0.178
22,CTGTACAA,-0.0149
23,TAGAAGAA,-0.0204
24,CGCCATAC,-0.054
25,AGTTTTAT,0.048

row,Sequence,PBM E-score
1,CCGAAGTA,0.0802
2,CAAATAAC,-0.0739
3,AATCAACT,0.314
4,ACATCGCC,-0.0494
5,CAATGCCA,-0.221
6,CGTTCTTA,-0.119
7,AACCATTC,0.0438
8,TGGCATAA,0.0552
9,CGACATAG,-0.0127
10,GGGGCGAC,0.186
11,CGTACGCA,-0.195
12,TCCTGCAA,0.0154
13,CTGGAGAC,-0.0698
14,TGACTGCA,0.404
15,AAAGGACG,-0.176
16,AAAAATTG,-0.139
17,TGCATCAA,-0.0146
18,ATATAAAG,-0.0351
19,GGCGCATA,-0.146
20,CTCTGAAG,0.0349
21,CATGAGAC,0.322
22,ACTGCCTC,-0.182
23,CAAGACCG,-0.316
24,AACCGTCT,-0.124
25,TGGCCTAA,-0.157

row,Sequence,PBM E-score
1,ATCATCCA,0.306
2,CACATCGC,0.0595
3,AAAACGTC,-0.0495
4,GTCAAAAC,0.256
5,GATAGTAA,0.149
6,TATGTACA,-0.0169
7,AAAGCCAC,-0.107
8,AGGCCCGC,-0.178
9,CCCACTAG,-0.284
10,GTGAGCTA,0.0552
11,AAGAAATC,-0.0761
12,CGCAGGTC,-0.302
13,CCCCGTGA,0.0132
14,GAGAATAA,0.13
15,AAACTAGC,-0.145
16,GGATAAAC,-0.0274
17,AACCTGCA,-0.129
18,GGTTACAA,0.121
19,AACGGGCG,-0.205
20,AATACATA,0.0284
21,AAAGCACA,0.0818
22,GGGTTTAC,-0.116
23,TATAAATA,0.0631
24,ATACCTAA,-0.0224
25,ATACGCCG,-0.239

row,Sequence,PBM E-score
1,AGCGAGTA,0.115
2,GGATGGCC,-0.288
3,AGTGCCAA,-0.102
4,GATCTCAA,0.0495
5,ACTGGCAC,-0.188
6,CTGAGACC,0.0557
7,AGAGCGAA,0.189
8,GAGGGGTA,-0.0967
9,GCTCATGA,0.196
10,CATTAGAC,0.0825
11,CGGCTACC,-0.0934
12,AATGCGTC,-0.125
13,CAGAGATA,0.0363
14,GTTCCTTA,-0.137
15,ACGGGAAG,-0.109
16,CAGAGTAA,-0.0541
17,AGAGCCTC,-0.263
18,CTGGCTCC,-0.182
19,TCATCGCA,0.291
20,ACTAGCCC,0.14
21,AATAGTGA,0.184
22,AGGGAGTG,-0.175
23,AGCACGTG,0.0502
24,AGAGGCAG,-0.127
25,AACTGTAT,0.101

row,Sequence,PBM E-score
1,CCTCATAG,-0.00122
2,GCTAGTAC,-0.0099
3,CCAGGAAG,-0.101
4,TATCCTCA,-0.0737
5,AGGCAACT,0.045
6,AACGAAAT,-0.028
7,AAGGGACC,-0.263
8,GCGGGTAC,0.0539
9,ACGGTAAG,-0.187
10,ACAACACA,0.108
11,CAACCGAA,0.112
12,AGAATGGC,-0.0575
13,ACAGCCAT,-0.0265
14,AATGGGGG,-0.354
15,AGTTCGAT,-0.0556
16,AACTCCGT,-0.105
17,AAGAAAGC,-0.105
18,CACGCACG,-0.183
19,ACAGAGAT,-0.00825
20,ATTTTGCC,-0.0975
21,ATTGGGTG,-0.00934
22,ACCGTGGG,-0.157
23,TGCAGTAA,0.0323
24,CATCGTGG,0.0139
25,GTCCGGAA,-0.0321

row,Sequence,PBM E-score
1,ACTAGGCA,-0.0739
2,AGGTCGCA,-0.108
3,AGGAGGGA,-0.156
4,GTTTCAAA,0.0649
5,AGATAAAT,0.0803
6,GACACCAC,-0.104
7,ACATACTC,0.157
8,AATGTAGC,-0.211
9,CGTAGTGA,0.0979
10,ACGGCAGC,-0.161
11,GTCACTCA,0.334
12,CAGGCGGA,0.0674
13,TAAAGAGA,0.108
14,ACTGCGTG,0.0677
15,GCAATCTA,-0.136
16,TGATAACA,0.0404
17,CAGCGATC,-0.12
18,GCAGCTCA,-0.0529
19,CCACCTGA,0.089
20,GGAACGCC,-0.27
21,ACGGCCTG,-0.12
22,AAAATCAA,0.101
23,AACACCGC,-0.177
24,AGTTCGGA,-0.0233
25,ATCACTAC,0.135

row,Sequence,PBM E-score
1,TGTCTTAA,-0.0134
2,ATTTGCAA,0.0994
3,CTGGTCTC,-0.044
4,GAACTGAC,-0.0132
5,ACGTTGCC,-0.21
6,ACCCATTG,-0.015
7,GCAACCAC,0.0872
8,AGTTGGAG,-0.0979
9,ACAACGCA,-0.114
10,CCACTAAA,-0.0544
11,AATACCCC,-0.434
12,CGCCTCAG,0.0344
13,ATTTGATC,0.0453
14,CCTATCTA,-0.0991
15,ATGGAATA,-0.193
16,AAAACCAG,0.131
17,CCTAGAAC,-0.117
18,TAATCCCA,-0.0399
19,ATCCGTCG,-0.269
20,GATTGGAC,-0.113
21,ACGGTGAT,0.184
22,AGCAACAA,0.101
23,CAACGCGC,0.0416
24,AATATCTC,-0.161
25,GTCCTCGA,0.197

row,Sequence,PBM E-score
1,ACTCATTA,0.372
2,ACAGAGCA,-0.0761
3,ATATTGCG,-0.172
4,CTCCGGGA,-0.0772
5,AGATGCGA,-0.0203
6,CCAAGAGA,0.0458
7,CATCTGCG,-0.141
8,CGTTTTGA,0.16
9,AGTTGAAA,0.0188
10,CCAGTGGA,-0.146
11,CCGACAAG,-0.0734
12,ATATGTGA,0.143
13,CCCTCTCC,-0.104
14,CTTCACAC,0.026
15,ATAGTAGG,0.042
16,AGGTTCAA,0.12
17,CTGTGCGC,-0.198
18,TACCTAAA,-0.0585
19,GGGCGGAC,-0.227
